# Measured values as given in PubChem BioAssay AID651820 (National Center for Advancing Translational Sciences (NCATS), 2012).
# Several values for one entry are separate records, joined by “and”; a condition that tells them apart may be missing. Equal entries are not always repeated. Screen size: about 340,000 compounds; about 12,000 (3.5%) were called active. This list was built around the results that the source calls inconclusive (neither active nor inactive); the mix of calls is not that of the screen. Calls follow the shape of the dose curve; as a rule, active = well fitted inhibition curve with a large enough effect; inconclusive = small, poorly fitted or top-dose-only effect, or another doubt; inactive = no such curve, though single readings can be large or run the other way. No potency is given beside an inconclusive call; the fits are too rough.
# Test: qHTS Assay for Inhibitors of Hepatitis C Virus (HCV)
# Conditions: Huh7.5.1 HCVcc-Cre (HCVcc is cell-culture hepatitis C virus) infection, luciferase reporter, 44 h; series mostly up to 41.8 µM
# Procedure, shortened: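 Cells seeded at 1,000/well and cultured 4 h, then compounds added followed by HCVcc-Cre virus (~0.5 moi). After 44 h further culture, luciferase substrate was added, plates held 15 min at room temperature, and luminescence read for 15 sec.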
# Potency is read from the fitted curve at half-maximal effect; tags tell the direction and shape of the fitted curve.
row,SMILES,Potency
1,CCCCc1nnc(NC(=O)CC(=O)Nc2ccccc2C(=O)O)s1,inactive
2,COC(=O)c1ccc(OC)c(CSc2nnc(COc3ccc(Cl)cc3)o2)c1,"inconclusive [inhibitor, single point]"
3,CC(=O)OC12COC1CC(O)C1(C)C(=O)C(O)C3=C(C)C(O)CC(O)(C(OC(=O)c4ccccc4)C21)C3(C)C (stereo unspecified),"inconclusive [inhibitor, single point]"
4,Cc1c(OC(C)C(=O)N2C[C@H]3C[C@@H](C2)c2cccc(=O)n2C3)ccc2c3c(c(=O)oc12)CCC3 (stereo partly specified),"inconclusive [inhibitor, full curve]"
5,CCc1ccccc1NC(=S)N(Cc1ccc(OC)cc1)CC1CCC(C(=O)O)CC1 (stereo unspecified),inactive
6,Cc1cc(NC(=O)c2cccs2)n(-c2nc3ccccc3[nH]2)n1,"inconclusive [inhibitor, partial curve]"
7,O=C(Nc1cccc(-n2cccn2)c1)C1CCCN(Cc2ccc(C#CCCO)cc2)C1 (stereo unspecified),"inconclusive [inhibitor, partial curve]"
8,CC1=C(/C=C/C(C)=C/C=C/C(C)=C/C(=O)Nc2ccc(O)cc2)C(C)(C)CCC1,active: 10 µM and active: 6.31 µM
9,COc1ccccc1CNc1ccc(CNc2ncn[nH]2)cc1,inactive
10,COc1ccc(S(=O)(=O)N2CCCCC2)cc1NC(=O)CCOc1cc(C)ccc1C,"inconclusive [inhibitor, single point]"
11,CC(C)C(NC(=O)c1ccco1)C(=O)OCC(=O)N1CC(=O)Nc2ccccc21 (stereo unspecified),inactive
12,CCn1c2ccc(C)cc2c2nnc(SCCN3CCOCC3)nc21,inactive
13,Cc1nc(CC(=O)Nc2nc(-c3ccccc3)cs2)cs1,"inconclusive [inhibitor, full curve]"
14,O=C(c1cccc(S(=O)(=O)NCc2ccccc2)c1)N1CCN(Cc2ccccc2)CC1,inactive
15,Cc1ccccc1C(=O)NC1CCS(=O)(=O)C1 (stereo unspecified),inactive
16,COc1ccc(/C=N/NC(=O)c2cccnc2)cc1CN1CCc2ccccc2C1,"inconclusive [inhibitor, partial curve, poor fit]"
17,Cc1cc(N2CCOCC2)ccc1/C=C1\NC(=O)N(CC(=O)Nc2ccc(F)cc2)C1=O,inactive
18,O=C(OCc1nnc(-c2ccccc2)o1)c1cc(Cl)ccc1[N+](=O)[O-],inactive
19,Cc1ccc(/C=C/C(=O)OC(C)C(=O)Nc2ncc(Cl)cc2Cl)o1 (stereo unspecified),inactive
20,O=C(NCc1ccc(Cl)cc1)N1CCN(Cc2ccccc2)CC1,"inconclusive [inhibitor, single point]"
21,Cc1ccc(-n2nnnc2SCC(=O)Nc2cccc(NC(=O)c3ccco3)c2)cc1C,active: 7.94 µM
22,CC1=NNC(=O)C(CC(=O)Nc2ccc(Cl)c(Cl)c2)C1 (stereo unspecified),"inconclusive [inhibitor, single point]"
23,CCCOC(=O)c1ccc(Oc2c(-c3ccc(OCC)cc3O)n[nH]c2C)cc1,"inconclusive [inhibitor, partial curve]"

row,SMILES,Potency
1,COc1cccc(/C=N/n2c(SC)nnc2-c2ccccc2)c1O,"inconclusive [inhibitor, single point]"
2,Cc1cccc(-c2nnc(SCC(=O)Nc3nc4c(s3)CCCC4)n2C)c1,"inconclusive [inhibitor, full curve, poor fit]"
3,c1ccc(CC2CCN(Cc3ccccn3)CC2)cc1,inactive
4,Cc1ccc(/C=C/C(=O)c2c(C)cc(C)[nH]c2=O)cc1,"inconclusive [inhibitor, single point]"
5,CCCN(CC(=O)Nc1ccccc1OC)C(=O)c1cc(-c2cccs2)nn1-c1ccccc1,"inconclusive [inhibitor, partial curve]"
6,NS(=O)(=O)c1ccc(CCNCc2cc(Br)ccc2OCc2ccccc2)cc1,active: 11.2 µM
7,Cc1cccc(C)c1OC1(c2ccccc2)OC(=O)c2ccccc21 (stereo unspecified),"inconclusive [inhibitor, single point]"
8,CCCC(NCC(O)COc1ccc(-c2ccccc2)cc1)c1ccccc1 (stereo unspecified),active: 11.2 µM
9,COc1ccc(/C(C)=N/NC(=O)CNC(=O)C(c2ccccc2)c2ccccc2)c(OC)c1,"inconclusive [inhibitor, partial curve]"
10,O=C1CCCN1c1ccc(S(=O)(=O)Oc2cccc(Cl)c2)cc1[N+](=O)[O-],"inconclusive [inhibitor, partial curve]"
11,O=CNc1ccc2c3c(cccc13)-c1ccccc1-2,active: 2.82 µM
12,O=C(c1c(F)cccc1Cl)N1CCN(S(=O)(=O)c2ccc3c(c2)OCCCO3)CC1,"inconclusive [inhibitor, single point]"
13,O=C(Nc1cccc(F)c1)C1CCCN(S(=O)(=O)c2ccc(-n3cnnn3)cc2)C1 (stereo unspecified),"inconclusive [inhibitor, full curve, poor fit]"
14,Cc1ccc(OCCCN2C(=O)C(=O)c3cc(C)ccc32)cc1,"inconclusive [inhibitor, partial curve]"
15,COc1ccc(F)cc1C(=O)C1CCCN(Cc2cnc(C)s2)C1 (stereo unspecified),inactive
16,NC(=O)C1CCN(C2=C(Cl)C(=O)c3ccccc3C2=O)CC1,active: 2.51 µM
17,COc1cccc(CNCc2ccc(OC)c3ccccc23)c1OC,"inconclusive [inhibitor, single point]"
18,COc1ccc(/C=N/N(CCC(=O)NC(C)(C)C)C2=NS(=O)(=O)c3ccccc32)cc1,inactive
19,CCOC(=O)c1oc2ccccc2c1NC(=O)c1cc(OC)cc(OC)c1,"inconclusive [inhibitor, single point]"
20,c1cncc(C2Nc3ccccc3-c3nc4ccccc4n32)c1 (stereo unspecified),"inconclusive [inhibitor, partial curve, poor fit]"
21,COc1ccccc1N1CCN(C(=O)CCc2nnc3ccc(N4CCCC4)nn23)CC1,inactive
22,Nc1cccc(-c2nc3ncccc3o2)c1,inactive
23,CC(=O)c1c(C)[nH]c(C(=O)OCC(=O)Nc2cc(S(=O)(=O)N3CCCCC3)ccc2C)c1C,inactive
